Source: ChEMBL document CHEMBL4888484, “Replenishing the malaria drug discovery pipeline: Screening and hit evaluation of the MMV Hit Generation Library 1 (HGL1) against asexual blood stage Plasmodium falciparum ,using a nano luciferase reporter read-out” (2022)
The campaign covered roughly 150,000 compounds. About 540 (0.36%) showed an effect of 50% or more. The list shows a part of the results.

Each compound was assayed on Plasmodium falciparum (assay: Primary screen in NF54 nanoGlo assay, in single point, at 2uM, 72h; a lower Z score goes with more inhibition). Conditions: timepoint 72 hour.
Type: functional, Erythrocyte

Going from `CCOCCCNC(=O)c1cc2c(=O)[nH]c(-c3ccccc3)cn2n1` to `CCOc1ccccc1[C@@H]1CC(=O)NC(NC(=O)c2cccnc2)=N1`, the “% Inhibition” value rises from -11% to -3%.

First: CC(C)(C)c1ccccc1S(=O)(=O)Nc1n[nH]c2ccccc12
Second: O=C(CCc1ccccc1)n1nc(NCc2ccccc2Cl)nc1NCc1ccccc1Cl
The “% Inhibition” value of the first is lower: -7% for the first, 8% for the second.

First: COc1ccc(CCC(=O)N(Cc2cccn2C)C2CC2)cc1
Second: O=C(NCc1ccc(Cl)cc1)c1ccccc1CN1CCOCC1
The “% Inhibition” value of the first is higher: 0% for the first, -2% for the second.

Compared with `CC(C)[C@H]1CC[C@H](C(=O)N[C@H](Cc2ccccc2)C(=O)N2CCOCC2)CC1`, `COc1cccc2c1N(CC(=O)N(C1CCCC1)C1CCS(=O)(=O)C1)CCC2C` (stereo not drawn) is higher in “% Inhibition” value: -13% for the first, -11% for the second.

First: CC(C)=CCN1CCC(NC(=O)c2ccc3[nH]cnc3c2)CC1
Second: O=C(O)[C@H]1CCCN1CCOc1c(Cl)cccc1Cl
The “% Inhibition” value of the first is higher: 1% for the first, -11% for the second.

Compared with `COC(=O)c1cc(NC(=O)C2CCCCC2)cn1C`, `O=C(Nc1nnc(-c2ccc(Br)o2)o1)C1CCCC1` is higher in “% Inhibition” value: -19% for the first, -8% for the second.

First: COc1cc(-c2c3c(C)nn(-c4ccccc4)c3nc3[nH]c(=O)[nH]c(=O)c23)cc(OC)c1O
Second: Cc1ccc(-c2c[n+]([O-])c3nc(-c4ccc(Br)cc4)cn3n2)cc1
The “% Inhibition” value of the first is lower: -7% for the first, -4% for the second.

Compared with `CC(C)Oc1cc(Br)cc(C(=O)N(C)C2(CO)CC2)c1`, `COc1ccc(CN(C[C@H](O)COC(C)(C)C)C(C)C)cc1OC` is lower in “% Inhibition” value: 17% for the first, -7% for the second.

First: Fc1cccc(-c2cncc(CN3CCCCC3)c2)c1F
Second: c1ccc(-c2noc(-c3cc(N4CCCC4)ccn3)n2)nc1
The “% Inhibition” value of the first is higher: -3% for the first, -22% for the second.

First: COc1ccc(CN2CC(c3nc(CCN(C)C(=O)C4CCOCC4)no3)C2)cc1C
Second: O=C(Cc1ccc(F)cc1Cl)N1CC2COCC(C1)O2
The “% Inhibition” value of the first is lower: -13% for the first, -4% for the second.

First: O=C(Cn1cccc(S(=O)(=O)N2CCOCC2)c1=O)Nc1ccc(F)c(Cl)c1
Second: CCc1ncc(S(=O)(=O)N2CC[C@H](c3nccn3C)C2)s1
The “% Inhibition” value of the first is lower: -10% for the first, 2% for the second.

First: O=C(NCC1CCCCC1)c1coc(CN2CCN(c3ncccn3)CC2)n1
Second: Cc1csc(CNC(=O)c2cccs2)n1
The “% Inhibition” value of the first is lower: -10% for the first, -5% for the second.

Compared with `CCOCCCNC(=O)c1cc2c(=O)[nH]c(-c3ccccc3)cn2n1`, `CCOc1ccccc1[C@@H]1CC(=O)NC(NC(=O)c2cccnc2)=N1` is lower in Z score: 1.46 for the first, 0.58 for the second.

Compared with `CC(C)(C)c1ccccc1S(=O)(=O)Nc1n[nH]c2ccccc12`, `O=C(CCc1ccccc1)n1nc(NCc2ccccc2Cl)nc1NCc1ccccc1Cl` is lower in Z score: 1.12 for the first, -1.04 for the second.

Compared with `COc1ccc(CCC(=O)N(Cc2cccn2C)C2CC2)cc1`, `O=C(NCc1ccc(Cl)cc1)c1ccccc1CN1CCOCC1` is higher in Z score: -0.08 for the first, 0.19 for the second.

Compared with `CC(C)[C@H]1CC[C@H](C(=O)N[C@H](Cc2ccccc2)C(=O)N2CCOCC2)CC1`, `COc1cccc2c1N(CC(=O)N(C1CCCC1)C1CCS(=O)(=O)C1)CCC2C` (stereo not drawn) is higher in Z score: 1.81 for the first, 1.85 for the second.

First: CC(C)=CCN1CCC(NC(=O)c2ccc3[nH]cnc3c2)CC1
Second: O=C(O)[C@H]1CCCN1CCOc1c(Cl)cccc1Cl
The Z score of the first is lower: -0.13 for the first, 1.4 for the second.

Going from `COC(=O)c1cc(NC(=O)C2CCCCC2)cn1C` to `O=C(Nc1nnc(-c2ccc(Br)o2)o1)C1CCCC1`, the Z score falls from 3.63 to 1.5.

Going from `COc1cc(-c2c3c(C)nn(-c4ccccc4)c3nc3[nH]c(=O)[nH]c(=O)c23)cc(OC)c1O` to `Cc1ccc(-c2c[n+]([O-])c3nc(-c4ccc(Br)cc4)cn3n2)cc1`, the Z score falls from 0.77 to 0.44.

Going from `CC(C)Oc1cc(Br)cc(C(=O)N(C)C2(CO)CC2)c1` to `COc1ccc(CN(C[C@H](O)COC(C)(C)C)C(C)C)cc1OC`, the Z score rises from -2.2 to 0.72.

Compared with `Fc1cccc(-c2cncc(CN3CCCCC3)c2)c1F`, `c1ccc(-c2noc(-c3cc(N4CCCC4)ccn3)n2)nc1` is higher in Z score: 0.27 for the first, 2.93 for the second.

First: COc1ccc(CN2CC(c3nc(CCN(C)C(=O)C4CCOCC4)no3)C2)cc1C
Second: O=C(Cc1ccc(F)cc1Cl)N1CC2COCC(C1)O2
The Z score of the first is higher: 1.71 for the first, 0.58 for the second.

Going from `O=C(Cn1cccc(S(=O)(=O)N2CCOCC2)c1=O)Nc1ccc(F)c(Cl)c1` to `CCc1ncc(S(=O)(=O)N2CC[C@H](c3nccn3C)C2)s1`, the Z score falls from 1.22 to -0.27.

Compared with `O=C(NCC1CCCCC1)c1coc(CN2CCN(c3ncccn3)CC2)n1`, `Cc1csc(CNC(=O)c2cccs2)n1` is lower in Z score: 1.38 for the first, 0.69 for the second.
